The source gives no read counts; variants with many changes may rest on few reads.

B1: OR4K15 (parent)
chain: GUUAACGGUCAUAGGCCAUGGAAACUAGGAGCACCAUUUCGCUGCCAGUGAAGAAAUGAACAAAGAAAAUCUGGGCCAGGCAGGCAUCAAAAGAAAUAGUCUUGCGCUCAACCAGAAAGUCUGUAAUCAUUUUAAGGGUA

Variants of B1 are the subject of this series. As to the kind of experiment: self-cleavage, relative activity (ratio to wild type); higher = more cleavage; in vitro, sequencing; the parent is a self-cleaving ribozyme.
For GUUAACGGUCGUAGGCCAUGGAAACUAGGAGCACCAUUUCGCUGCCAGUGAAGAAAUGGACAAAGAAAAUCUGGGCCAGGCAGGCAUCAAAAGAAAUUGUCUUGCGCUCAUCCAGAAAGUCUGUAAUCACUUUAAGGGUA [A11G A59G A98U A111U U130C], the self-cleavage amounted to 0.14.
In the case of GUUAACGGUCGUAGGCCAUGGAAACUAGGAGCACCAUUUCGCUGCCAGUGGAGAAAUGAACAAAGAAAAUCUGGGCCAGGCAGGCAUCAAAAGAAAUAGUCUCGCGCUCAACCAGAAAGUCUGUAAUCAUUUUAAGGGUA [A11G A51G U103C], the self-cleavage was found to be 1.28.
With GUUAACGGUCGUAGGCCAUGGAAACUAGGAGCACCAUUUCGCUGCCAGUGAAGAAAUGUACAAAGAAAAUCUGGGCCAGGCAGGCAUCAGAAGAAAUAGUCUUGCGCUCAACCAGAAAGUCUGUAACCAUUUUAAGGGUA [A11G A59U A90G U127C], the self-cleavage was 0.46.
To GUUAACGGUCGUAGGCCAUGGAAACUAGGAGCACCAUUUCGCUGCCAGUGAAGGAAUGAACAAAGAAAAUCUGGGCCAGGCAGGCAUCAAAAGAAGUAGUCUUGCGCUCAACCAGAAAGUCUGUAAUCAUUUUAAGGGUA [A11G A54G A96G] belongs 1.41; to GUUAACGGUCGUAGGCCAUGGAAACUAGGAGCACCAUUUCGCUGCCAGUGAAGAAAUGGACAAAGAAAAUCUGGGCCAGGCAGGCAUCAAAAGAAAUAGUCUUGCGCUCAACCAGAAGGUCUGUAAUCGUUUUAAGGGUA [A11G A59G A118G A129G], 0.33.
In the case of GUUAACGGUCGUAGGCCAUGGAAACUAGGAGCACCAUUUCGCUGCCAGUGAAGAAGUGAACAAGGAAAAUCUGGGCCAGGCAGGCAUCAAAAGAAAUAGUCUUGCGCUCAACCAGAAAGUCUGUAAUCAUUUUAAGGGUA [A11G A56G A64G] it was 0.79; in that of GUUAACGGUCGUAGGCCAUGGAAACUAGGAGCACCAUUUCGCUGCCAGUGAAGUAAUGAACAAAGAAAAUCUGGGCCAGGCAGGCAUCAAAAGAAAUAGUCUUGCGCUCAACCAGAAGGUCUGUAAUCAAUUUAAGGGUA [A11G A54U A118G U130A], 0.89; in that of GUUAACGGUCGUAGGCCAUGGAAACUAGGAGCACCAUUUCGCUGCCAGUGGGGAAAUGAACAAAGAAAAUCUGGGCCAGGCAGGCAUCAAAAGAAAUAGUCUUGCGCUCAACCAGAAAGUCUGUAAUCAUUUUAAGGGUA [A11G A51G A52G], 1.22.
In the case of GUUAACGGUCGUAGGCCAUGGAAACUAGGAGCACCAUUUCGCUGCCGGUGAAGAAAUGAGCAAAGAAAAUCUGGGCCAGGCAGGCAUCAAAAGAAAUAGUCUUGCGCUCAACCAGAAAGUCUGUAAUCAUUUUAAGGGUG [A11G A47G A60G A140G] it was 0.51.
Consider GUUAACGGUCGUAGGCCAUGGAAACUAGGAGCACCAUUUCGCUGCCAGUGAAGGAAUGAACAAAGAAAAUCUGGGCCAGGCGGGCAUCAAAAGAAAUAGUCUUGCGCUCAACCAGAAAGACUGUAAUCAUUUUAAGGGUA [A11G A54G A82G U120A], for which the self-cleavage came to 0.27.
In the case of GUUAACGGUCGUAGGCCAUGGAAACUAGGAGCACCAUUUCGCUGCCAGUGGAGAAAUGAACAAAGAAAAUCUGGGCCAGGCAGGCAUCAAGAGAAAUAGUCUUGCGCUCAACCUGAAAGUCUGUAACCAUUUUAAGGGUA [A11G A51G A91G A114U U127C], the self-cleavage amounted to 0.02.
To GUUAACGGUCGUAGGCCAUGGAAACUAGGAGCACCAUUUCGCUGCCAGUGACGAAAUGAACAAAGAAAAUCUGGGCCAGGCAGGCAUCAAAAGAAAUAGUCUUGCGCUCAACCAGAAAGUCUGUAGUCAUUUUAAGGGUA [A11G A52C A126G] belongs 1.19; to GUUAACGGUCGUAGGCCAUGGAAACUAGGAGCACCAUUUCGCUGCCAGUGAAGUAAUGAACAAAGAAAAUCUGGGCCAGGCAGGCGUCAAAAGAAAUAGUCUUGCGCUCAACCAGAAAGUCUGUAAUCAUUUUAAGGGUA [A11G A54U A86G], 1.05.
For GUUAACGGUCGUAGGCCAUGGAAACUAGGAGCACCAUUUCGCUGCCAGUGAAGAAAUGGACAAAGAAAAUCUGGGCCAGGCAGGCAUCAAAAGAAAUAGUCUUGCGCUCAACCAGAAAGUCCGUAAUCAUUUUAAGGGUA [A11G A59G U122C], the self-cleavage worked out at 0.55.
To GUUAACGGUCGUAGGCCAUGGAAACUAGGAGCACCAUUUCGCUGCCUGUGAAGAAAUGAACAAAGAAAAUCUGGGCCAGGCAGGCAUCAAAAGAAAUAGUCUUGCGCUCAACCAGGAAGUCUGUAAUCAUUUUAAGGGUA [A11G A47U A116G] belongs 0.48; to GUUAACGGUCGUAGGCCAUGGAAACUAGGAGCACCAUUUCGCUGCCGGUGAAGAAGUGAACAAAGAAAAUCUGGGCCAGGCAGGCAUCAAAAGAAAUAGUCUUGCGCUCAACCAGAAAGUCUGUGAUCAUUUUAUGGGUA [A11G A47G A56G A125G A135U], 0.37.
As to GUUAACGGUCGUAGGCCAUGGAAACUAGGAGCACCAUUUCGCUGCCAGUGAAGAAGUGAACAAAGAAGAACUGGGCCAGGCAGGCAUCAAAAGAAAUAGUCUUGCGCUCAACCAGGAAGUCUGUAAUCAUUUUAAGGGUA [A11G A56G A68G U70A A116G], the self-cleavage turned out to be 0.6.
In the case of GUUAACGGUCGUAGGCCAUGGAAACUAGGAGCACCAUUUCGCUGCCAGUGAAGAGAUGAACAAAGAAAAUCUGGGCCAGGCAGGCAUCAAAAGAAAUAGUCUUGCGCUCAACCAGAAAGUCUGCAAUCAUUUUAAGGGUA [A11G A55G U124C] it was 1.22; in that of GUUAACGGUCGUAGGCCAUGGAAACUAGGAGCACCAUUUCGCUGCCAGUGAAGAAAUGAGCAAAGAAAGUCUGGGCCAGGCAGGCAUCAAAAGAAAUAGUCUUGCGCUCAACCAGAAAGUCUGUAAUCAUUUUAAGGGUA [A11G A60G A69G], 0.75.
Turning to GUUAACGGUCGUAGGCCAUGGAAACUAGGAGCACCAUUUCGCUGCCUGUGAAGAAAUGAGCAAAGAAAAUCUGGGCCAGGCAGGCAUCAAAAGAAAUAGUCUUGCGCUCAACCAGAAAGUCUGUAAUCAUUUUAAGGGUA [A11G A47U A60G], the self-cleavage was 0.42.

The record behind these values is the RNAGym collection of RNA variant scans (doi:10.7554/elife.90254).
